PubChem BioAssay AID1466 (National Center for Advancing Translational Sciences (NCATS), 2008)
Out of some 200,000 compounds screened, about 10 (0.005%) were called active. Inconclusive means that the source gave no clear call. Such entries were picked first, then a sample of the others. Calls come from the whole dose curve; as a rule, active = well fitted inhibition curve with a large enough effect; inconclusive = small, poorly fitted or top-dose-only effect, or effect the other way, or another doubt; inactive = no such curve, though single readings can be large or run the other way. Where the call is inconclusive, the potency comes from a doubtful curve fit.

target: Lysosomal alpha-glucosidase (Homo sapiens) (UniProt P10253); experiment: qHTS Assay for Inhibitors of Human alpha-Glucosidase as a Potential Chaperone Treatment of Pompe Disease; details: purified human GAA, 4-MU-alpha-glucoside fluorescence; activity change, negative = inhibition: at 76.9 µM (top of the series) unless noted;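 for activity change, negative = inhibition: plate controls were uninhibited enzyme wells for no effect and no-enzyme background for full effect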
Summary of the method: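 Compounds are titrated up to 77 uM against 4 nM human enzyme. Substrate 4-methylumbelliferyl-alpha-D-pyranoside (400 uM) reacts 20 min at room temperature in pH 5.0 buffer; liberated 4-methylumbelliferone is read at 440 nm.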
Potency is the fitted concentration of half-maximal effect; tags give direction and shape of the fitted curve.

Potency, inconclusive:
CC(=O)c1ccc(-c2ccc(/C=C(/Sc3n[nH]c(C)n3)C(=O)O)o2)cc1 39.8 µM [inhibitor, single point]
COC(=O)Cc1c[nH]c2cccc(OCC(O)CN(Cc3ccc([N+](=O)[O-])cc3)C(C)(C)C)c12 (stereo not given) 39.8 µM [inhibitor, partial curve, poor fit]
Cc1nn(Cc2ccc(C(=O)NC3CCCCC3)o2)c(C)c1Br 7.08 µM [inhibitor, single point]
CN(C(=O)COC(=O)CCc1c[nH]c2ccccc12)C(c1ccccc1)c1ccccc1 1 µM [inhibitor, full curve]
COc1cc(CN(C(=S)NCC(=O)NC2CC2)C2CCCC2)cc(OC)c1OC 11.2 µM [inhibitor, single point]
Cc1nc2[nH]c(=O)c3c(n2n1)NC1=C(C(=O)CC(C)(C)C1)C3c1ccccc1 (stereo not given) 44.7 µM [activator, single point]
Cc1cccc2cc(CN(CC3CCCO3)C(=S)Nc3ccccc3)c(=O)[nH]c12 (stereo not given) 25.1 µM [inhibitor, partial curve]
Cc1cc(C)nc(SCc2ccc(C(=O)N/N=C/c3ccncc3)cc2)n1 35.5 µM [inhibitor, partial curve]
COc1ccc(N2CCN(C(=O)CCNS(=O)(=O)c3ccc(Br)s3)CC2)cc1 56.2 µM [inhibitor, single point]
COC(=O)c1ccc2c(=O)n(CCCCCC(=O)NCCNC(C)=O)c(=O)[nH]c2c1 31.6 µM [activator, partial curve]
COC(=O)c1sc2nc(-c3ccccc3)nc(N3CCN(C)CC3)c2c1C 56.2 µM [inhibitor, single point]
N#C/C(=C\c1ccco1)Sc1nc2ccccc2s1 11.2 µM [inhibitor, single point]
CC(=O)c1cc2c(cc1NC(=O)CSc1nnc(C)s1)OCO2 12.6 µM [activator, partial curve, poor fit]
CC(N=Cc1cccc(O)c1O)c1ccccc1 (stereo not given) 56.2 µM [inhibitor, single point]
COc1ccc(C2C(C(=O)c3sc(C)nc3C)=C(O)C(=O)N2CCCn2ccnc2)cc1OC (stereo not given) 50.1 µM [inhibitor, single point]
Cc1ccc2nc3c(cc(C#N)c(=N)n3CC3CCCO3)c(=O)n2c1 (stereo not given) 39.8 µM [activator, partial curve]
CCOC(=O)Cn1c(C)c(Br)c(=O)c2cccc(C)c21 50.1 µM [inhibitor, single point]
O=C(Nc1ccc(-c2nc3c(ccc4ccccc43)o2)cc1)c1ccco1 31.6 µM [activator, single point]
O=c1c2ccccc2nc(SCc2nc3ccccc3s2)n1Cc1ccco1 50.1 µM [inhibitor, single point]
Cn1c(SCC(=O)N2CCCc3ccccc32)nc2cccnc21 56.2 µM [inhibitor, single point]
CNC(=O)CN(C1CCCCC1)S(=O)(=O)c1ccc(F)cc1 0.631 µM [inhibitor, partial curve, poor fit]
CC(C)CCn1c(=O)c2ccccc2n2c(CN(C)Cc3ccccc3)nnc12 1.58 µM [inhibitor, full curve, poor fit]
CCOc1ccc(C(=O)OCC(=O)NC(C)C)cc1 35.5 µM [inhibitor, single point]
CN1CCN(S(=O)(=O)c2ccc3[nH]cc(C(=O)O)c(=O)c3c2)CC1 11.2 µM [activator, partial curve]
Cc1ccc(S(=O)(=O)N(CC(=O)N2CCC(C)CC2)Cc2ccccc2F)cc1 2 µM [inhibitor, full curve]
COc1cc(NC(=O)C2CCCN(S(=O)(=O)c3ccc4c(c3)oc(=O)n4C)C2)cc(OC)c1 (stereo not given) 31.6 µM [inhibitor, partial curve]
O=C(c1cc[n+]([O-])cc1)N1CCc2c([nH]c3ccccc23)C1c1ccccc1Cl (stereo not given) 22.4 µM [inhibitor, single point]
O=C(c1ccccc1NS(=O)(=O)c1ccc(F)cc1)N1CCCC1 50.1 µM [inhibitor, single point]

Potency, inactive:
CSc1ccccc1NC(=O)CN(C)CC(=O)Nc1cc(C)ccc1C
COc1ccc(-c2nc3ccccc3n2Cc2ccccc2)cc1
CCCCCOc1ccc(/C=c2\sc3nc(=O)c(-c4ccccc4)nn3c2=O)cc1OC
CN1CCN(c2nc(-c3cccs3)nc3ccccc23)CC1

Activity change, negative = inhibition, inconclusive:
OCCOc1cccc(CN2CCC(CO)(CCOc3ccccc3)CC2)c1 13.7% [activator]
Cc1ccc(CN2CN(S(=O)(=O)c3cccs3)c3nc4ccccc4nc32)cc1 16.1% [activator]
Cc1ccc(NC(=O)CN(C)CC(=O)Nc2ccc(N3CCOCC3)cc2)cc1F 8.92% [activator]
CCc1c(O)nc(SCC(=O)N(CC)CC)[nH]c1=O 13.3% [activator]
CCC(C)NCCOCCOc1ccc(Cl)c2ccccc12 (stereo not given) -0.351% [inhibitor] [at 15.4 µM]
O=[N+]([O-])c1ccc(N/N=C/c2sc(N3CCOCC3)nc2-c2ccccc2)c(S(=O)(=O)Nc2ccccc2Cl)c1 15.2% [activator]
Cn1c(CNc2ccc(F)cc2)nnc1SCC(=O)NNC(=O)Cc1ccccc1 14.9% [activator]
Cc1ccc(Cn2c(O)c(N=NC(=S)Nc3ccccc3F)c3cc(S(=O)(=O)N4CCOCC4)ccc32)cc1 -15.9% [inhibitor]
